Experimental data reported in US5030629A, “Compositions and method comprising heterocyclic compounds containing two heteroatoms as membrane penetration enhancers” (priority 1989, dated 1991).

From the text: Sci. 75, 1094 (1986). […] All formulations were studied in triplicate.

| Compound | permeation for Isosorbide Dinitrate as compared to control |
| --- | --- |
| CCCCCCCCCCCC1=NCCN1CCO [Example 25, 1-(2-Hydroxyethyl)-2-undecyl-2-imidazoline] | superior permeation |
| CCCCCCCCCCCC1=NCCN1CCOCC [Example 27, 1-(2-Ethoxyethyl)-2-undecyl-2-imidazoline] | superior permeation |
| CCCCCCCCCCCC1=NC(C)(C)CN1 [Example 30, 4,4-Dimethyl-2-undecyl-2-imidazoline] | superior permeation |
| CCCCCCCCCCCC1=NCCN1C [Example 34 A, 1-Methyl-2-undecyl-2-imidazoline] | superior permeation |
| CCCCCCCCCCCC1=NCCN1CCC [Example 34 B, 1-Propyl-2-undecyl-2-imidazoline] | superior permeation |
